Measured values published in PMC6919601, “Identification of Plasmodium dipeptidyl aminopeptidase allosteric inhibitors by high throughput screening” (PLoS ONE, 2019).
The campaign covered roughly 110,000 compounds. About 230 (0.21%) showed an effect of 50% or more. The list shows a part of the results.

Each compound was assayed against DPAP1 (Plasmodium falciparum, UniProt Q8IIJ9) (assay: primary screen, percent inhibition; read by cleavage of a fluorogenic dipeptide substrate; higher = more effect of the substance).
Parameters: species or system P. falciparum D10 trophozoite lysates; single well
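Also: 30 min substrate incubation versus DMSO and 10 µM JCP410 controls.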

DPAP1, sequence (Q8IIJ9 whole entry, looked up): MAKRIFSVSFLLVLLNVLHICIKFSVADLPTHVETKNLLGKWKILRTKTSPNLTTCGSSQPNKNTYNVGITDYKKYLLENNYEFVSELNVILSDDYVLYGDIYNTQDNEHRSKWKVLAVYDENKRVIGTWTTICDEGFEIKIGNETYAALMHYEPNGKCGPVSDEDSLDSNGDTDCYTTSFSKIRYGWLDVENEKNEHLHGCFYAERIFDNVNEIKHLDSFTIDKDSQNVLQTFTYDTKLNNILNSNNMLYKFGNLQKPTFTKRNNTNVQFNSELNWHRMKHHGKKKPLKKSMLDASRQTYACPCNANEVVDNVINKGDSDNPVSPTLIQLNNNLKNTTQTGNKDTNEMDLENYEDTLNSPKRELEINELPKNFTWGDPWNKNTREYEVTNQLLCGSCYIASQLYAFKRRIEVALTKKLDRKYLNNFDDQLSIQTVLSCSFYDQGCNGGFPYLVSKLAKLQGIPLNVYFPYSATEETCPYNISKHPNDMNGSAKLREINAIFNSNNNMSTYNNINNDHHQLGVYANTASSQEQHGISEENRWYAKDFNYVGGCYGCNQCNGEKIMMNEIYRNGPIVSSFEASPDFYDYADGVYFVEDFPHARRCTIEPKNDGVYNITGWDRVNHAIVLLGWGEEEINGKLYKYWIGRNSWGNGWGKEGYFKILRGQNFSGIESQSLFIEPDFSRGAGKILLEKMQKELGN

| Compound | % Inhibition @ 10 uM |
| --- | --- |
| O=C1CSC(c2ccccc2)N1c1nnc(C23CC4CC(CC(C4)C2)C3)s1 (centres unmarked) | -2.65% |
| CC1CCN(C(=O)CN(C)S(=O)(=O)c2ccc(Cl)cc2)CC1 | 5.12% |
| O=C(Nc1ccccc1)c1cccc(S(=O)(=O)NCc2ccccc2)c1 | -1.77% |
| CCc1nc2ccccc2c(=O)n1Cc1ccccc1 | 1.96% |
| COc1ccc(C2=NOC(=O)C2)cc1 | -4.59% |
| Cc1ccccc1C1C(C#N)=C(N)Oc2n[nH]c(C(C)C)c21 (centres unmarked) | 0.343% |
| N#Cc1ccc(Oc2ccccc2N2C(=O)C3C4C=CC(C4)C3C2=O)cc1 (centres unmarked) | 4.57% |
| O=C(CCc1ccccc1)Nc1cccc(NC(=O)CCc2ccccc2)n1 | 2.03% |
| COc1ccc(-c2nc(C#N)c(NCc3ccco3)o2)cc1 | -3.23% |
| Brc1ccc2nc3c(n2c1)CCCC3 | 3.31% |
| CCOC(=O)c1cnc(-c2ccccc2)nc1O | -2.83% |
| COC(=O)C1C(c2ccccc2)=NN(c2ccccc2)C1C(=O)OC (centres unmarked) | -6.52% |
| C=CCOc1ccccc1/C=c1/sc2nc(=O)c(Cc3ccc(F)cc3)nn2c1=O | 1.02% |
| CCOC(=O)N1CCC(NCc2c(C(=O)O)c(C)n(Cc3ccc(F)cc3)c2C)CC1 | -5.72% |
| CCOC(=O)Nc1ccc(-c2cccc(CC(CS(=O)(=O)Cc3ccccc3OC(F)F)C(=O)NCC#N)c2)cc1 (centres unmarked) | -3.49% |
| COc1ccc(C(=O)Nc2nnc(S(=O)(=O)N(C)Cc3ccc(F)cc3)s2)cc1OC | 3.74% |
| c1ccc(CC2CCN(Cc3c[nH]c4ccccc34)CC2)cc1 | 2.33% |
| CN(C)S(=O)(=O)c1ccc(C(=O)NCCn2ccc3ccccc32)cc1 | -0.396% |
| Cc1cc(C)c2c(-n3cccc3)c(C(=O)N3CCN(Cc4ccc5c(c4)OCO5)CC3)sc2n1 | 2.27% |
| COc1ccc(-n2nc3c(N4CCC(C(=O)NC5CCCCCC5)CC4)nnc(C)c3c2C)cc1 | 2.92% |
| O=C(NCCCc1ccccc1)[C@H](CS(=O)(=O)Cc1ccccc1OC(F)F)NC(=O)N1CCOCC1 | 1.61% |
| Cc1ccc(-c2nnc3n2C(C)(C)Cc2ccccc2-3)cc1 | -4.98% |
| CC1=C(c2c(C)sc(C)c2C(=O)O)C(C)CCC1 (centres unmarked) | 4.83% |
| O=C(CCc1ccc(S(=O)(=O)NCc2ccccc2)cc1)Nc1ccc2c(c1)OCCO2 | -3.43% |
| O=C(NC1CCCCC1)c1cccc2c1C(=O)N(CC1CCCO1)C2 (centres unmarked) | -2.83% |

| Compound | % Inhibition @ 10 uM |
| --- | --- |
| CCOC(=O)C1=C(C)NC(=O)NC1c1ccc(O)c(OC)c1 (centres unmarked) | 3.31% |
| CCOC(=O)c1sc2nc(CSc3nc(C)cc(O)n3)cc(=O)n2c1C | -0.495% |
| Cc1ccc(C)c(NC(=O)CN(c2ccc(F)cc2)S(C)(=O)=O)c1 | -3.39% |
| c1ccc2cc3c(Nc4ccc(N5CCCCC5)cc4)ccnc3cc2c1 | 6.48% |
| CC(C)(C)c1ccc(C(=O)NCc2cccs2)cc1 | 3.53% |
| CCCn1c2ccccc2c2cnn(CC(=O)NC(C)c3ccccc3)c(=O)c21 (centres unmarked) | -3.47% |
| O=C1C(Sc2nc[nH]n2)=C/C(=N/S(=O)(=O)c2cccs2)c2ccccc21 | 10.8% |
| CCOC(=O)N1CCC(N2CCc3ccccc3C2)CC1 | -3.27% |
| O=C1Cc2ccccc2C(c2ccc(Cl)cc2Cl)N1 (centres unmarked) | -3.14% |
| COc1ccc(NC(=O)NC(C)c2ccccc2)cc1 (centres unmarked) | -2.03% |
| COc1ccc(-c2cc3c(=O)n(CC(=O)NC(C)C45CC6CC(CC(C6)C4)C5)ncn3n2)cc1 (centres unmarked) | 2.27% |
| O=C(O)c1ccc(NS(=O)(=O)c2cccc(S(=O)(=O)c3ccccc3)c2)cc1 | 11.9% |
| Cc1cccc(Oc2nc3ccccn3c(=O)c2/C=C(\C#N)C(=O)N2CCOCC2)c1C | 0.315% |
| Cc1ccccc1OCCn1c(SC(C)C(=O)O)nc2c(N)ncnc21 (centres unmarked) | -2.21% |
| CCC(Sc1nc2nnc(C)c-2c(N)n1-c1ccccc1C)C(=O)N1CCCC1 (centres unmarked) | -0.458% |
| Cc1ccc(/C=C/C(=O)N(Cc2ccccc2F)C2CCS(=O)(=O)C2)cc1 (centres unmarked) | -1.35% |
| CCCCSC1=C(C#N)C(=O)NC(c2ccc(O)c(OC)c2)S1 (centres unmarked) | 4.93% |
| O=C(NCCc1ccccc1)c1ccccc1NS(=O)(=O)c1ccc(Cl)cc1 | -3.16% |
| CCOC(=O)C1=C(CN2CCC(Cc3ccccc3)CC2)NC(=O)NC1c1ccc(Cl)cc1 (centres unmarked) | -4.69% |
| CCOC(=O)N1CCN(S(=O)(=O)c2ccc(-c3cc(C)no3)cc2)CC1 | -2.56% |
| CC1=C(C)C[C@H](C(=O)O)[C@@H](C(=O)O)C1 | 1.63% |
| Nc1nnc(-c2cc(-c3ccc(O)cc3)on2)o1 | -3.53% |
| NC(=O)Nc1ccccc1C(=O)NCc1ccccc1 | -4.52% |
| Cc1cc2oc(C(=O)NC3CCS(=O)(=O)C3)c(C)c2cc1C (centres unmarked) | -4.66% |
| CCC1CCCCN1Cc1ccc(CNC(=O)c2cc3ccc4cccnc4c3[nH]2)o1 (centres unmarked) | 1.75% |
